The whole screen tested about 73,000 compounds, of which about 1,800 (2.5%) were called active. Inconclusive means that the source gave no clear call. Such entries were picked first, then a sample of the others. The call rests on the fitted dose curve; in most records, active means well fitted activation curve with a large enough effect; inconclusive means small, poorly fitted or top-dose-only effect; inactive means no such curve, though single readings can be large or run the other way. No potency is given beside an inconclusive call; the fits are too rough.
Assay: qHTS Assay for Agonists of the Thyroid Stimulating Hormone Receptor: Activators of Intracellular cAMP Concentrations in Parental HEK 293; further: nearly all actives have a fitted effect of over 55% in size; on activation: % of control where 0% means no effect
Conditions: parental HEK293 CNG cAMP sensor, membrane potential fluorescence; activation: at 57.1 µM (top of the series) unless noted
Method in brief: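 Parental HEK 293 cells stably expressing a modified CNG channel (no TSHR) report cAMP rise as membrane depolarization. Membrane potential dye with 100 uM RO 20-1724 was loaded for 60 min at room temperature, then compound added for 30 min; fluorescence read at 590 nm.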
Potency means the concentration at half of the fitted maximal effect; tags describe the fitted curve by direction and shape.

SMILES | Potency | activation
COC(=O)[C@@]1(Cc2ccccc2)[C@H]2c3cc(C(=O)N4CCCC4)n(CC4CC4)c3C[C@H]2CN1C(=O)c1ccccc1 | active: 2 µM | –
CCN1c2ccccc2NC2N=C(OC)C(c3ccccc3)C21 (stereo unspecified) | inconclusive [activator, single point] | –
COc1cccc(-c2nccc(NCc3cccnc3)n2)c1 | – | inactive: 21.1%
CCN(Cc1ccccc1)C(c1ccccn1)c1nnnn1C(C)(C)CC (stereo unspecified) | active: 5.01 µM | –
CC(C)N(Cc1ccccc1)C(=O)COC(=O)c1ccc2c(c1)OCCO2 | inconclusive [activator, single point] | –
COc1ccc(CC(=O)Nc2cccc(-c3nnc(-c4ccc(C)cc4)o3)c2)cc1OC | – | inactive: 28.1%
Cc1ccc(Oc2cc(C)nc(-c3ccccc3O)n2)cc1 | inconclusive [activator, partial curve] | –
CCCCCCn1c(CN2CCCC(C)C2)nc2c1c(=O)n(C)c(=O)n2C (stereo unspecified) | inconclusive [activator, full curve] | –
CC1CCc2c(C(=O)NCCN3CCOCC3)csc2C1 (stereo unspecified) | inconclusive [activator, single point] | –
CCOC(=O)c1cnc(-n2nc(C)cc2C)nc1NCc1ccccc1 | active: 20 µM | –
Cc1onc(-c2ccccc2Cl)c1C(=O)N1CCc2ccccc21 | inconclusive [activator, partial curve] | –
Clc1nc(NCCc2ccccc2)c2ncn(-c3ccccc3)c2n1 | inconclusive [activator, single point] | –
Cc1ccc(-c2nnn(CC(=O)N(Cc3ccco3)C(C(=O)NC(C)(C)C)c3cccs3)n2)o1 (stereo unspecified) | active: 20 µM | –
COc1ccccc1Nc1nnc(SCC(=O)N2CCCC2=O)s1 | – | inactive: -11.1%
Cc1ccccc1-n1c(C)nnc1SCc1nc2ccccc2s1 | inconclusive [activator, partial curve] | –
Cc1cc2cc(CN3C(=O)c4ccccc4C3=O)ccc2n1C | – | inactive: 13%
FC(F)(F)c1cccc(N2CCN(c3nnnn3-c3ccccc3)CC2)c1 | active: 31.6 µM | –
Cc1cc(=O)oc(C)c1C(=O)N1CCc2c([nH]c3ccccc23)C1C(C)C (stereo unspecified) | inconclusive [activator, single point] | –
Cc1cc(C(=O)OCC(=O)NCc2ccco2)c(C)n1-c1ccc(F)cc1 | active: 15.8 µM | –
O=S1(=O)[C@H]([C@H]2CC3c4ccccc4C2c2ccccc23)[C@@H](N2CCCCC2)[C@@H]1c1ccccc1 | – | inactive: 27.3% [at 11.4 µM]
Cc1ccc(-n2ncc3c(=O)n(CC(=O)OCc4ccccc4)cnc32)cc1 | active: 25.1 µM | –
CC1(C)Cc2c(C#N)c(NC3CCCCC3)nc(-c3ccco3)c2CO1 | inconclusive [activator, single point] | –
OC(CN1C2=NCCN2c2ccccc21)c1ccccc1 (stereo unspecified) | inconclusive [activator, single point] | –

SMILES | Potency | activation
COc1cccc(CN2CCN(CC(=O)Nc3ccccc3Cl)CC2)c1 | inconclusive [activator, single point] | –
O=[N+]([O-])/C=C\c1cc2ccccc2[nH]1 | – | inactive: 15.9% [at 11.4 µM]
Cc1cccc2sc(NC(=O)CNS(=O)(=O)c3ccc(Br)s3)nc12 | – | inactive: 4.06%
O=c1cnc2cnc(Oc3ccccc3)nc2n1Cc1cccs1 | active: 20 µM | –
COc1cccc(NC(=O)Cn2c(SCC(=O)N3CCOCC3)nc3ccccc32)c1 | inconclusive [activator, single point] | –
Cc1cccc(CNc2cc(-c3cccnc3)ncn2)c1 | – | inactive: 2.14%
O=C(Oc1ccccc1)n1c(=O)oc2ccc(Cl)cc21 | – | inactive: -14.1%
Cc1cc(C)c2cc(CN(Cc3ccc4c(c3)OCO4)Cc3nnnn3Cc3ccco3)c(=O)[nH]c2c1 | inconclusive [activator, partial curve] | –
COc1ccccc1NC(=O)CSc1nnc(-c2ccoc2C)n1CCc1ccccc1 | inconclusive [activator, partial curve] | –
CCOc1ccccc1NC(=O)c1cc(S(=O)(=O)N2CCC3(CC2)OCCO3)ccc1F | inconclusive [activator, single point] | –
COc1ccc(Oc2ncc3nc(C)c(=O)n(Cc4cccc(OC)c4)c3n2)cc1 | active: 25.1 µM | –
COc1ccc(-c2cc(C(=O)NCCN3CCOCC3)c3ccccc3n2)cc1 | – | inactive: 7.03%
Cn1c(=O)c2c(SCc3cccnc3)nc(CC(C)(C)C)nc2n(C)c1=O | inconclusive [activator, single point] | –
COc1cccc(-c2nc(CS(=O)CC(=O)NCc3ccccc3Cl)c(C)o2)c1 (stereo unspecified) | inconclusive [activator, partial curve] | –
COc1ccc(-c2ccc(-c3noc(-c4ccncc4)n3)c(OC)n2)cc1 | inconclusive [activator, single point] | –
CCOC(=O)N1CCN(C(=O)CC(=O)Nc2ccc3nc4n(c(=O)c3c2)CCCCC4)CC1 | – | inactive: -3.66%
O=C1c2ccccc2C(Cc2ccnc(F)c2)(Cc2ccnc(F)c2)c2ccccc21 | active: 0.251 µM | –
CN1CCN(c2nc3cc(C(F)(F)F)ccc3n3cccc23)CC1 | inconclusive [activator, partial curve, poor fit] | –
COC(=O)c1ccc(CSc2nnc(SCc3ccc(C(=O)OC)o3)s2)o1 | inconclusive [activator, partial curve] | –
CC1CCN(C(c2ccc(N(C)C)cc2)c2nnnn2Cc2ccc(F)cc2)CC1 (stereo unspecified) | inconclusive [activator, partial curve] | –
CCOC(=O)c1cnn(CCOC(=O)Cc2cccs2)c1NC(=O)Cc1cccs1 | – | inactive: 10.7%
CCCn1c(-c2ccc(F)cc2)nc2c(NC(C)CCCN(CC)CC)nc(C)nc21 (stereo unspecified) | inconclusive [activator, partial curve] | –
CC(C)(C)c1ccc(O)c(CN(Cc2c(O)ccc3ccccc23)C2CCCCC2)c1 | – | inactive: 0.962% [at 11.4 µM]

Reference: PubChem BioAssay AID938 (National Center for Advancing Translational Sciences (NCATS), 2007)
